Laboratory results from PubChem BioAssay (NCI).
Several values for one entry are separate records, joined by “and”; a condition that tells them apart may be missing. Identical values can stand only once.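 Values below derive from 48-hour exposures of cells grown in 96-well plates, with endpoints linearly interpolated between the two concentrations bracketing the appropriate inhibition level. GI50 is the concentration that inhibits growth by half. The concentration for full growth arrest is given as TGI.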

test system: NCI-H322M lung; test: NCI tumour cell line growth inhibition, 48 h

Row | Compound | TGI | GI50
1 | CCCCN(CCCC)C(=Nc1ccccc1)N(CCCC)CCCC | 48.1 µM | 
2 | COC(=O)C1=Cc2cc3c(cc2[C@H](c2ccc4c(c2)OCO4)C1C(=O)OC)OCO3 (some centres not stated) | > 100 µM | 
3 | C1=C[C@@H]2c3ccc4cnccc4c3NC[C@@H]2C1 | > 100 µM | 
4 | CC1(C)C2CCC1(CS(=O)(=O)Nc1ccccc1)C(=O)C2 (configuration not stated) | > 100 µM | 
5 | CC(=O)Nc1ccc(S(=O)(=O)Nc2nnc(S(N)(=O)=O)s2)cc1 | > 100 µM | 
6 | COc1ccc(-c2oc3ccc(C)cc3c(=O)c2O)cc1 | > 100 µM | 
7 | COC(=O)C1=CC(=O)C(C(=O)Nc2ccc(OC)cc2)C(c2ccccc2)O1 (configuration not stated) | > 100 µM | 
8 | Cc1nc2c(cc1C(=O)NN)c(=O)n(C)c(=O)n2C | > 100 µM | 
9 | COCn1c(C)c(C)c2c(=O)oc(=O)[nH]c21 | > 100 µM | 
10 | O=C1NN=C(c2ccc(Cl)cc2)CC1C1C(=O)N(c2ccccc2)N=C1c1ccccc1 (configuration not stated) | 64.2 µM | 
11 | Cc1cccc2c1C(=O)C1(Cc3ccccc3C1=O)C2 (configuration not stated) | > 100 µM | 
12 | NNC(=O)CC(=O)Nc1ccc(Cl)cc1 | > 100 µM | 
13 | C[C@]12CC[C@H]3[C@@H](CCC4=CC(=O)C=C[C@@]43O)[C@@H]1CCC2=O | > 100 µM | 
14 | O=C(CC1Sc2ccccc2NC1=O)Nc1cccc(Cl)c1 (configuration not stated) | > 100 µM | 
15 | CCCC1NC(C#N)(C#N)C(CCC)NC1(C#N)C#N (configuration not stated) | > 100 µM | 
16 | CC1(C)CCC[C@]2(C)[C@@H]1CC[C@@]13O[C@@H]1C1=C(CO)C(=O)O[C@]14O[C@@H]4[C@@H]23 | 28.4 µM | 
17 | CCCSc1cc(Cl)c(C)cc1S(=O)(=O)n1ccnc1OCCCN(C)C | > 100 µM | 
18 | CCSSCS(C)(=O)=O | > 100 µM | 
19 | CC[C@]1(O)C[C@@H]2CN(Cc3c([nH]c4ccccc34)[C@@](C(=O)OC)(c3cc4c(cc3OC)N(C)[C@H]3[C@@](O)(C(=O)OC)[C@H](OC(C)=O)[C@]5(CC)[C@@H]6C[C@@H]6CN6CC[C@]43[C@@H]65)C2)C1 | > 4.38 µM | > 1.17 µM
20 | COc1ccc(NC(=O)CC/C(CC(=O)c2ccco2)=N/Nc2ccc([N+](=O)[O-])cc2[N+](=O)[O-])cc1 | > 100 µM | 
21 | CC1(CCCC2(C)CCNC2=O)OCCO1 (configuration not stated) | > 10 µM | 
22 | CC(C)c1ccc2c(c1)CCC1C(C)(C)[C@@H](O)CC[C@]21C (some centres not stated) | > 100 µM | 
23 | C=CCOc1ccc(C2c3c([nH][nH]c3=O)CC(O)(OCC)C2C(=O)OCC)cc1OC (configuration not stated) | > 100 µM | 
24 | COC1CCC(=C2C(=O)OC(C)(C)OC2=O)N1 (configuration not stated) | > 100 µM | 
25 | CCN(CC)CCn1c(=N)n(CC(O)c2ccc(Cl)c(Cl)c2)c2ccccc21 (configuration not stated) | 24.5 µM | 11.3 µM

Row | Compound | TGI | GI50
26 | CCCCC1(N=[N+]=[N-])C(=O)c2cccc3c2N(CCC3)C1=O (configuration not stated) | > 100 µM | 
27 | CN(C)CCCn1c(Cc2ccccc2)nc2cc(C(F)(F)F)ccc21 | 49.9 µM | 
28 | COCn1c2ccc(OC(C)=O)cc2c2c(=O)oc(C)nc21 | > 100 µM | 
29 | C/C(O)=C/c1nc2ccccc2nc1/C=C(/C)O | > 100 µM | 
30 | CCOC(=O)C(C(=O)c1ccccc1-c1ccccc1C(=O)O)=P(c1ccccc1)(c1ccccc1)c1ccccc1 | 99.5 µM | 
31 | CCNc1nc(N)c(C(=O)c2ccc(Cl)cc2)s1 | > 100 µM | 
32 | N/C(=N\N=C\c1ccc2c(c1)OCO2)NO | > 100 µM | 
33 | Cc1cc(O)c(C(C)C)cc1NC(=O)Nc1cccc2ccccc12 | 30 µM | 
34 | CC(C)(O)Cn1c(=O)c(Oc2ccc(F)cc2F)cc2cnc(NC3CCOCC3)nc21 | > 25 µM | > 25 µM
35 | O=C(c1ccccc1)c1nnn(Cc2cccc(Cl)c2)c1C(=O)c1ccccc1 | > 100 µM | 
36 | Brc1ccc2c(-c3nc(-c4c[nH]c5ccccc45)cs3)c[nH]c2c1 | 97.8 µM | 
37 | O=C(CC(O)(c1ccccc1)c1ccc(Cl)cc1)NC(=O)c1ccccc1O (configuration not stated) | > 100 µM | 
38 | COc1ccc(C(=O)CC2(O)C(=O)Nc3c(Cl)ccc(Cl)c32)cc1 (configuration not stated) | > 100 µM | 6.16 µM
39 | C#Cc1cccc(NC(=O)Nc2ccccc2NC(=O)CCl)c1 | > 82.5 µM | > 82.5 µM
40 | COc1ccc(/C=N\N2CC(=O)N3C4C=CC(CC4)N3C2=O)cc1 (configuration not stated) | > 100 µM | 
41 | c1ccc2c(c1)c1c(n2CCOCCN2CCCCC2)CCCC1 | 28.8 µM | 
42 | CCCCc1ccc2nc(NC(=O)OC)[nH]c2c1 | > 89 µM | 0.154 µM
43 | [N-]=[N+]=Nc1ccc(S(=O)(=O)Oc2cc(OS(=O)(=O)c3ccc(N=[N+]=[N-])cc3)cc(OS(=O)(=O)c3ccc(N=[N+]=[N-])cc3)c2)cc1 | > 100 µM | 
44 | COC12C=C/C(=C(/C(=O)OCc3ccncn3)C(=O)CCCCCCCCC3(OC)C=C/C(=C(/C(=O)OCc4ccncn4)C(=O)CCCCCCCC1)O3)O2 | 2.21 µM | 0.74 µM
45 | Cc1cc(O)c2c(c1)C[C@@H](O)C1=C2C(=O)c2c(O)ccc(OC3CC(O)C(OC4CC(OC5CCC(OC6CC(O)C(OC7CC(OC8CCC(O)C(C)O8)C(O)C(C)O7)C(C)O6)C(C)O5)C(O)C(C)O4)C(C)O3)c2C1=O (some centres not stated) |  | 1.74 µM
46 | CCOC(=O)c1c(SC(=O)c2cc(OC)c(OC)c(OC)c2)n(-c2ccccc2)c(=S)n(-c2ccccc2)c1=O | > 100 µM | 
47 | O=C(CCc1cccc(O)c1)NCCc1cccc(O)c1 | > 100 µM | 
48 | COc1cc2c(cc1OC)C1CN3C(=O)CCC3C(O)C1c1cc(OC)c(OC)cc1-2 (configuration not stated) | > 100 µM | 
49 | CCOC(=O)c1cc2c(n1Cc1cccc(OC)c1)-c1oncc1CC2 | > 100 µM | 4.99 µM
50 | CC(=O)OC1COC(N2C(=O)C(=O)c3c(C)cc(Cl)nc32)C(OC(C)=O)C1OC(C)=O (configuration not stated) | > 100 µM | 

Row | Compound | TGI | GI50
51 | O=C(NCC1Nc2ccncc2S(=O)(=O)N1)c1ccc(Br)cc1 (configuration not stated) | > 100 µM | 
52 | CCN(CC)CCCCCCCCNc1c2ccc(Cl)cc2nc2ccc(OC)cc12 | 5.56 µM | 1.92 µM
53 | CC(=O)Nc1ccc2c(C(=O)O)c(C)c(=O)[nH]c2n1 | > 100 µM | 
54 | O=C1C=Cc2c(Cl)sc(Cl)c21 | 29.4 µM | 
55 | COC(c1ccsc1)C(C#N)(C#N)N=Cc1ccsc1 (configuration not stated) | 27.6 µM | 
56 | O=c1c(Cl)nsnc1Cl | 33.4 µM | 
57 | CCc1nc(N)nc(N)c1-c1ccc(Cl)cc1 | > 100 µM | 
58 | CC(=O)Oc1c(-c2ccccc2)[nH]c2cc([N+](=O)[O-])c(/C(Cl)=C/c3ccccc3)cc12 | 81.9 µM | 
59 | CN(Cc1c2ccccc2cc2ccccc12)S(=O)(=O)c1ccc(-c2c3nc(c(-c4ccc(S(=O)(=O)N(C)Cc5c6ccccc6cc6ccccc56)cc4)c4ccc([nH]4)c(-c4ccc(S(=O)(=O)N(C)Cc5c6ccccc6cc6ccccc56)cc4)c4nc(c(-c5ccc(S(=O)(=O)N(C)Cc6c7ccccc7cc7ccccc67)cc5)c5ccc2[nH]5)C=C4)C=C3)cc1 | > 100 µM | 
60 | COC(=O)C1=C(O)C(O)=C(C(=O)OC)CC1 | > 100 µM | 
61 | O=C1Cc2c(-c3ccc(Cl)cc3)cc(-c3ccccc3)nc2-c2ccccc2N1 | 94.5 µM | 
62 | Cc1ccc(CCC(=O)Nc2ncc(Cc3cc(Cl)ccc3Cl)s2)o1 | > 100 µM | 0.825 µM
63 | COc1ccc(CN(O)C2C(CO)OC(n3cc(I)c(=O)[nH]c3=O)C2O)cc1 (configuration not stated) | > 100 µM | 
64 | CCOC(=O)C(=[N+]=[N-])C(=O)C[N+]12CCN(CC1)CC2 | > 100 µM | 
65 | Oc1ccc2c(c1)-c1c(c3cc(O)ccc3n1CCN1CCOCC1)CC2 | > 100 µM | 
66 | COc1ccc(NC(=O)c2ccc(NC3=C(Cl)C(=O)N(Cc4ccccc4)C3=O)cc2)cc1 | 34.5 µM | 17.4 µM
67 | CC(=O)O[C@@H]1C=CC(=O)C2(CC(=O)O[C@@H]2/C=C(\C)CCC=C(C)C)C1 (some centres not stated) | 5.14 µM | 2.15 µM
68 | O=C(Nc1ccc(Cl)cc1)NS(=O)(=O)c1ccc2c(c1)CCC2 | > 95.6 µM and 40.1 µg/mL | 19.7 µg/mL
69 | O=C1CCCC1C(=O)Nc1ccc2ccccc2c1 (configuration not stated) | > 100 µM | 
70 | COc1cc(C2c3cc4c(cc3C(O)C3CCC(=O)N23)OCO4)cc(OC)c1OC (configuration not stated) | > 100 µM | 
71 | COc1ccccc1/C=C1\COc2ccc(O)c(O)c2C1=O | > 100 µM | 2.55 µM
72 | COc1cc[c]([Hg][Cl])cc1 | 30.3 µM | 15.6 µM
73 | CCOC(=O)c1cnc2ccc(Cl)cc2c1NCCCN(C)C | > 100 µM | 33 µM
74 | Nn1c(Cc2ccc(Cl)cc2)n[nH]c1=O | > 100 µM | 
75 | CN(C)CCCn1cnc2ncccc2c1=O | > 100 µM | 

Row | Compound | TGI | GI50
76 | CCOC(=O)C1=CN=C2C(=O)N(c3ccccc3)N(C)C2(C)C1=N (configuration not stated) | > 100 µM | 
77 | CC(C)NC(=O)OCc1nnn2c1C(OC(=O)NC(C)C)CC2 (configuration not stated) | > 100 µM | 
78 | C=C1C(=O)OC(CCCCCCCC)C1C(=O)O (configuration not stated) | 40.3 µM | 19.5 µM
79 | CC(C)(C)C#C[P+](c1ccccc1)(c1ccccc1)c1ccccc1 | 2.23 µM | 
80 | COc1ccc2c(c1)OCC1(O)Cc3ccccc3OC21 (configuration not stated) | > 100 µM | 
81 | COc1ccc(C(=O)/C=C/c2ccc(Cl)cc2)cc1S(N)(=O)=O | 8.1 µM | 2.04 µM
82 | Cn1cc(-c2ccc3cc(-c4ccc(CC(=O)Nc5cc(C(C)(C)C)nn5C)cc4)cnc3c2)cn1 | > 100 µM | 0.162 µM
83 | [O-][n+]1onc2c3nn(-c4ccccc4)nc3ccc21 | 41 µM | 
84 | Cc1c2c(n3c(nc4ccccc43)c1C#N)SCC2 | > 10 µM | 
85 | CN(C)N=Nc1ccc([N+](=O)[O-])cc1C(N)=O | > 100 µM | 
86 | COc1ccc(/C=C2/SC(=Nc3c(C)nn(-c4ccccc4)c3N)NC2=O)cc1 | 25.7 µM | 3.82 µM
87 | Cc1cc2c(-c3nc4ccccc4[nH]3)c(O)c(O)cc2c(O)c1-c1c(C)cc2c(-c3nc4ccccc4[nH]3)c(O)c(O)cc2c1O | 7.74 µM | 0.0711 µM
88 | COc1cc([C@@H]2c3cc4c(cc3[C@H](OC3OC5COC(c6ccccc6)OC5C(O)C3O)[C@H]3COC(=O)[C@H]23)OCO4)cc(OC)c1OC (some centres not stated) | 20.6 µM | 0.522 µM
89 | O=c1c2ccccc2oc2c1ccc1ncccc12 | 70.2 µM | 
90 | O=S(=O)(c1ccccc1)n1c(C(O)c2ccncc2)cc2ccccc21 (configuration not stated) | > 100 µM | 
91 | C=CCCc1cc(OC)ccc1CN(C)C(C)(C)CO | > 100 µM | 
92 | CCS[C@H]1NC(=O)C1[C@H](C)O[Si](C)(C)C(C)(C)C (some centres not stated) | > 100 µM | 
93 | Cn1ccnc1CCc1ccc(F)cc1F | > 100 µM | 
94 | CCc1cc(C(N)=O)ccc1-n1nc(C(C)C)c2c(-n3cnc(-c4cnn(C)c4)c3)ccnc21 | > 100 µM | 12.6 µM
95 | O=C(O)Cc1ccc(Oc2nc3ccccc3nc2-c2cccs2)cc1 | > 100 µM | 
96 | Cc1ccc(S(=O)(=O)NCCCN(CCCNS(=O)(=O)c2ccc(C)cc2)S(=O)(=O)c2ccc(C)cc2)cc1 | > 100 µM | 
97 | Oc1nc(N/N=C/c2c[nH]c3ccccc23)[nH]c1/C=C1\C=Nc2ccccc21 | > 100 µM | 
98 | CC(=O)NNc1nc(C)c(C(/C=C/c2ccc(/C=C/C(=N\NC(=O)c3ccncc3)c3sc(NNC(C)=O)nc3C)cc2)=N/NC(=O)c2ccncc2)s1 | > 100 µM | 
99 | O=[N+]([O-])C(/C(Cl)=C(/Cl)N1CCOCC1)=C1\NCCO1 | > 100 µM | 
